# Test results reported in the supplement of paper PMC8728848.
# The other results are listed elsewhere or left out.
# Tests used:
# Assay in all cases: glycan array binding signal (z-score within array); higher = stronger binding
# Settings in all cases: glycan notation: IUPAC condensed, linker removed
# [1] = target: Gal(b1-4)GlcNAc(b1-3)Gal(b1-4)GlcNAc(b1-2)Man(a1-3)[Gal(b1-4)GlcNAc(b1-3)Gal(b1-4)GlcNAc(b1-2)Man(a1-6)]Man(b1-4)GlcNAc(b1-4)[Fuc(a1-6)]GlcNAc
# Summary of the method: (§1)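 Negative Z-scores can be read as non-binding. The Z-score is calculated within each array and then averaged across arrays of one protein sequence at different concentrations or buffers and across linkers. Arrays, 3228 in all, were curated from the Consortium for Functional Glycomics database and kept only where the protein sequence was available.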
# [2] = target: Gal(b1-4)GlcNAc(b1-3)Gal(b1-4)GlcNAc(b1-2)[Gal(b1-4)GlcNAc(b1-3)Gal(b1-4)GlcNAc(b1-6)]Man(a1-6)[Gal(b1-4)GlcNAc(b1-3)Gal(b1-4)GlcNAc(b1-2)Man(a1-3)]Man(b1-4)GlcNAc(b1-4)GlcNAc
# Summary of the method: as §1
# [3] = target: Gal(b1-4)GlcNAc(b1-3)Gal(b1-4)GlcNAc(b1-2)[Gal(b1-4)GlcNAc(b1-3)Gal(b1-4)GlcNAc(b1-6)]Man(a1-6)[Gal(b1-4)GlcNAc(b1-3)Gal(b1-4)GlcNAc(b1-2)Man(a1-3)]Man(b1-4)GlcNAc(b1-4)[Fuc(a1-6)]GlcNAc
# Summary of the method: as §1
# [4] = target: Gal(b1-4)GlcNAc(b1-3)Gal(b1-4)GlcNAc(b1-3)Gal(b1-4)GlcNAc
# Summary of the method: as §1
# [5] = target: Gal(b1-4)GlcNAc(b1-3)Gal(b1-4)GlcNAc(b1-3)Gal(b1-4)GlcNAc(b1-2)Man(a1-3)[Gal(b1-4)GlcNAc(b1-3)Gal(b1-4)GlcNAc(b1-3)Gal(b1-4)GlcNAc(b1-2)Man(a1-6)]Man(b1-4)GlcNAc(b1-4)GlcNAc
# Summary of the method: as §1
# [6] = target: Gal(b1-4)GlcNAc(b1-3)Gal(b1-4)GlcNAc(b1-3)Gal(b1-4)GlcNAc(b1-2)Man(a1-3)[Gal(b1-4)GlcNAc(b1-3)Gal(b1-4)GlcNAc(b1-3)Gal(b1-4)GlcNAc(b1-2)Man(a1-6)]Man(b1-4)GlcNAc(b1-4)[Fuc(a1-6)]GlcNAc
# Summary of the method: as §1
# [7] = target: Gal(b1-4)GlcNAc(b1-3)Gal(b1-4)GlcNAc(b1-3)Gal(b1-4)GlcNAc(b1-2)[Gal(b1-4)GlcNAc(b1-3)Gal(b1-4)GlcNAc(b1-3)Gal(b1-4)GlcNAc(b1-6)]Man(a1-6)[Gal(b1-4)GlcNAc(b1-3)Gal(b1-4)GlcNAc(b1-3)Gal(b1-4)GlcNAc(b1-2)Man(a1-3)]Man(b1-4)GlcNAc(b1-4)[Fuc(a1-6)]GlcNAc
# Summary of the method: as §1
# [8] = target: Gal(b1-4)GlcNAc(b1-3)Gal(b1-4)GlcNAc(b1-3)Gal(b1-4)GlcNAc(b1-3)Gal(b1-4)GlcNAc(b1-2)Man(a1-3)[Gal(b1-4)GlcNAc(b1-3)Gal(b1-4)GlcNAc(b1-3)Gal(b1-4)GlcNAc(b1-3)Gal(b1-4)GlcNAc(b1-2)Man(a1-6)]Man(b1-4)GlcNAc(b1-4)GlcNAc
# Summary of the method: as §1
# [9] = target: Gal(b1-4)GlcNAc(b1-3)Gal(b1-4)GlcNAc(b1-3)Gal(b1-4)GlcNAc(b1-3)Gal(b1-4)GlcNAc(b1-2)Man(a1-3)[Gal(b1-4)GlcNAc(b1-3)Gal(b1-4)GlcNAc(b1-3)Gal(b1-4)GlcNAc(b1-3)Gal(b1-4)GlcNAc(b1-2)Man(a1-6)]Man(b1-4)GlcNAc(b1-4)[Fuc(a1-6)]GlcNAc
# Summary of the method: as §1
# [10] = target: Gal(b1-4)GlcNAc(b1-3)Gal(b1-4)GlcNAc(b1-3)Gal(b1-4)GlcNAc(b1-3)Gal(b1-4)GlcNAc(b1-2)[Gal(b1-4)GlcNAc(b1-3)Gal(b1-4)GlcNAc(b1-3)Gal(b1-4)GlcNAc(b1-3)Gal(b1-4)GlcNAc(b1-6)]Man(a1-6)[Gal(b1-4)GlcNAc(b1-3)Gal(b1-4)GlcNAc(b1-3)Gal(b1-4)GlcNAc(b1-3)Gal(b1-4)GlcNAc(b1-2)Man(a1-3)]Man(b1-4)GlcNAc(b1-4)[Fuc(a1-6)]GlcNAc
# Summary of the method: as §1
# [11] = target: Gal(b1-4)GlcNAc(b1-3)Gal(b1-4)GlcNAc(b1-3)Gal(b1-4)GlcNAc(b1-3)Gal(b1-4)GlcNAc(b1-3)Gal(b1-4)GlcNAc(b1-2)Man(a1-3)[Gal(b1-4)GlcNAc(b1-3)Gal(b1-4)GlcNAc(b1-3)Gal(b1-4)GlcNAc(b1-3)Gal(b1-4)GlcNAc(b1-3)Gal(b1-4)GlcNAc(b1-2)Man(a1-6)]Man(b1-4)GlcNAc(b1-4)GlcNAc
# Summary of the method: as §1
# [12] = target: Gal(b1-4)GlcNAc(b1-3)Gal(b1-4)GlcNAc(b1-3)Gal(b1-4)GlcNAc(b1-3)Gal(b1-4)GlcNAc(b1-3)Gal(b1-4)GlcNAc(b1-2)Man(a1-3)[Gal(b1-4)GlcNAc(b1-3)Gal(b1-4)GlcNAc(b1-3)Gal(b1-4)GlcNAc(b1-3)Gal(b1-4)GlcNAc(b1-3)Gal(b1-4)GlcNAc(b1-2)Man(a1-6)]Man(b1-4)GlcNAc(b1-4)[Fuc(a1-6)]GlcNAc
# Summary of the method: as §1
# [13] = target: Gal(b1-4)GlcNAc(b1-3)Gal(b1-4)GlcNAc(b1-3)Gal(b1-4)GlcNAc(b1-3)Gal(b1-4)GlcNAc(b1-3)Gal(b1-4)GlcNAc(b1-2)[Gal(b1-4)GlcNAc(b1-3)Gal(b1-4)GlcNAc(b1-3)Gal(b1-4)GlcNAc(b1-3)Gal(b1-4)GlcNAc(b1-3)Gal(b1-4)GlcNAc(b1-6)]Man(a1-6)[Gal(b1-4)GlcNAc(b1-3)Gal(b1-4)GlcNAc(b1-3)Gal(b1-4)GlcNAc(b1-3)Gal(b1-4)GlcNAc(b1-3)Gal(b1-4)GlcNAc(b1-2)Man(a1-3)]Man(b1-4)GlcNAc(b1-4)[Fuc(a1-6)]GlcNAc
# Summary of the method: as §1
# [14] = target: Gal(b1-4)GlcNAc(b1-3)Gal(b1-4)GlcNAc(b1-3)Gal(b1-4)GlcNAc(b1-3)Gal(b1-4)GlcNAc(b1-3)Gal(b1-4)GlcNAc(b1-3)Gal(b1-4)GlcNAc(b1-2)Man(a1-3)[Gal(b1-4)GlcNAc(b1-3)Gal(b1-4)GlcNAc(b1-3)Gal(b1-4)GlcNAc(b1-3)Gal(b1-4)GlcNAc(b1-3)Gal(b1-4)GlcNAc(b1-3)Gal(b1-4)GlcNAc(b1-2)Man(a1-6)]Man(b1-4)GlcNAc(b1-4)GlcNAc
# Summary of the method: as §1
# [15] = target: Gal(b1-4)GlcNAc(b1-3)Gal(b1-4)GlcNAc(b1-3)GalNAc
# Summary of the method: as §1
# [16] = target: Gal(b1-4)GlcNAc(b1-3)Gal(b1-4)GlcNAc(b1-3)[Gal(b1-4)GlcNAc(b1-3)Gal(b1-4)GlcNAc(b1-6)]GalNAc
# Summary of the method: as §1
# [17] = target: Gal(b1-4)GlcNAc(b1-3)Gal(b1-4)GlcNAc(b1-6)[Gal(b1-3)]GalNAc
# Summary of the method: as §1
# [18] = target: Gal(b1-4)GlcNAc(b1-3)Gal(b1-4)[Fuc(a1-3)GlcNAc(b1-6)]Gal(b1-4)Glc
# Summary of the method: as §1
# [19] = target: Gal(b1-4)GlcNAc(b1-3)Gal(b1-4)[Fuc(a1-3)]GlcNAc(b1-3)Gal(b1-4)[Fuc(a1-3)]GlcNAc
# Summary of the method: as §1
# [20] = target: Gal(b1-4)GlcNAc(b1-3)GalNAc
# Summary of the method: as §1
# [21] = target: Gal(b1-4)GlcNAc(b1-3)[Fuc(a1-3)GlcNAc(b1-6)]Gal(b1-4)Glc
# Summary of the method: as §1
# [22] = target: Gal(b1-4)GlcNAc(b1-3)[Gal(b1-4)GlcNAc(b1-6)]Gal(b1-4)GlcNAc
# Summary of the method: as §1
# [23] = target: Gal(b1-4)GlcNAc(b1-3)[Gal(b1-4)GlcNAc(b1-6)]GalNAc
# Summary of the method: as §1
# [24] = target: Gal(b1-4)GlcNAc(b1-3)[GlcNAc(b1-6)]Gal(b1-4)GlcNAc
# Summary of the method: as §1
# [25] = target: Gal(b1-4)GlcNAc(b1-6)Gal(b1-4)GlcNAc
# Summary of the method: as §1
# [26] = target: Gal(b1-4)GlcNAc(b1-6)GalNAc
# Summary of the method: as §1
# [27] = target: Gal(b1-4)GlcNAc(b1-6)[Gal(b1-3)]GalNAc
# Summary of the method: as §1
# [28] = target: Gal(b1-4)GlcNAc(b1-6)[Gal(b1-3)]GlcNAc
# Summary of the method: as §1
# [29] = target: Gal(b1-4)GlcNAc(b1-6)[Gal(b1-4)GlcNAc(b1-3)]GalNAc
# Summary of the method: as §1
# Gal(b1-4)GlcNAc6P = target: Gal(b1-4)GlcNAc6P
# Summary of the method: as §1
binder,measurement,setting,value
"Epa1-NP (Candida glabrata), Q6VBJ0 (protein) MILNPALFLNKCVCIYTTLILLLLTNGGYATSSNDISLASKDPTTFPLGCSPDITTPKKGLSMELYSYDFRKKGSYPCWDAAYLDPNYPRTGYKSHRLLAKVDGVTGNINFYYHATKGCTPQLGHLPASYNYPKPLTMTNFTMLLYGYFRPKVTGFHTFTISADDLLFVNFGAGNAFDCCRRDSSADHFGNYQAYAIWGSKTAKDELTVHLDAGVYYPIRLFYNNREYDGALSFTFKTESNENTVSDFSEYFFSLDDTEEGCPGLISYDSSCASVKTSKIIGIDYHTETPNENLVPITKTIYHLGIPCTGTTTTPLCGSGFYDPLANKCVTINTSSTSSVTKTTSHTTSKEVSFHSSISSQKTLIPKSIPSPYGPIKSQSIPTEMETSSEISSSEYAFSDVISTPSHSPYTKKHSSLNSSSYTSTVIHSLTSYSISQGIFSTSLSEQNITSKSSTDKFSTATSMSNNITQSSIIISQFSTNNENYTTTSMHTSSDKISTETLNNSISTTTSILFSNSSTILKNNTTIISSDKDTHYHPVNPTIVCSTNKTEIICASITQPSISNSNNHWSSSVLKFNSTTVRSTLPSSAGSNETSINVPFSSSTESNTSTSSTSTSNSKMVRSTLPSSAGSNETSISVPFSSSTESNTSTSSTSTSNSKMVRSTLPSSAGSNETSINVPFSSSTESNTSTSSTSTSNSKTVRSTPFSSAGIIMTSLSQRNNKSASSYASSNSKCYNTADSCRKVHSTPSYLLTSSYTSEGVDYDCSLVSTKLKINDTNCVNNKHTTKSCLKTSVTTTIPTLEIKTARKSSSNTIGLHSYPTSSPNKSISSAPIIGYISSFKTIKTASPSYQTSDLTTITTITSLNNPGSTAVENTHESNDKSRKTSSNDISSKHSVIKETKDAVESSNKSHQTNTLKCSSIIIASSSHNSYESLGGTTLTLTLSKVYSPQNNDTLPFLEISEVNPSRTVLPESSKMMQYLTSTEERNKTARNTIATNIVSISTFHFEGEGNAIRMGYTQLLLMLIGIIVMNIGT",glycan array binding signal (z-score),[1],1.63
same,glycan array binding signal (z-score),[2],1.54
same,glycan array binding signal (z-score),[3],2.48
same,glycan array binding signal (z-score),[4],0.443
same,glycan array binding signal (z-score),[5],1.13
same,glycan array binding signal (z-score),[6],1.64
same,glycan array binding signal (z-score),[7],2.81
same,glycan array binding signal (z-score),[8],0.868
same,glycan array binding signal (z-score),[9],1.25
same,glycan array binding signal (z-score),[10],1.61
same,glycan array binding signal (z-score),[11],1.22
same,glycan array binding signal (z-score),[12],0.887
same,glycan array binding signal (z-score),[13],1.3
same,glycan array binding signal (z-score),[14],1.3
same,glycan array binding signal (z-score),[15],-0.144
same,glycan array binding signal (z-score),[16],1.2
same,glycan array binding signal (z-score),[17],1.37
same,glycan array binding signal (z-score),[18],-0.216
same,glycan array binding signal (z-score),[19],0.29
same,glycan array binding signal (z-score),[20],0.08
same,glycan array binding signal (z-score),[21],-0.106
same,glycan array binding signal (z-score),[22],1.54
same,glycan array binding signal (z-score),[23],1.37
same,glycan array binding signal (z-score),[24],0.487
same,glycan array binding signal (z-score),[25],2.34
same,glycan array binding signal (z-score),[26],0.743
same,glycan array binding signal (z-score),[27],2.73
same,glycan array binding signal (z-score),[28],2.48
same,glycan array binding signal (z-score),[29],1.66
same,glycan array binding signal (z-score),Gal(b1-4)GlcNAc6P,-0.287
